The values that follow come from ChEMBL document CHEMBL1157539, “Thousands of chemical starting points for antimalarial lead identification” (Nature, 2010).

Whole data set: some 13,000 compounds, median “IFI” near 4, cut for the highest 2% near 17. The list shows a part of the results.

The experiment in a line: GSK_TCMDC: Inhibition Frequency Index (IFI). The number of non-kinase HTS assays where a compound showed > 50 % inhibition, expressed as a percentage of the number of such assays in which the compound was tested (-0 is zero). It counts as functional.
`Fc1ccc2cc(C=Cc3ccncc3)[nH]c2c1` registered an IFI of 2.56%. `Fc1cccc(CNc2ncc(-c3ccsc3)c(-c3nccs3)n2)c1`: the IFI was found to be 4.55%. Compound `CCOc1cc(Cc2cnc(N)nc2N)cc(OCC)c1O` registered an IFI of 0.75%. `COc1ccc2nccc(NC(=O)N3CCC(NCc4cc5ccccc5[nH]4)CC3)c2n1` showed an IFI of 2.99%.

As to `Fc1cccc(COc2ccc(Nc3ncnc4ccc(-c5nnc(C(F)(F)F)o5)cc34)cc2Cl)c1`, the IFI turned out to be 1.46%.

In turn, `O=C(/C=C/c1ccc(Cl)c(Cl)c1)N1CCC(CN2CCC(Cc3nc4ccccc4[nH]3)CC2)CC1` came in with an IFI of 7.75%. In the case of `COc1ccc2nccc(N3CCC(CCNCc4ccc5c(n4)NC(=O)CO5)CC3)c2n1` it was 3.62%; in that of `CCN(CC)S(=O)(=O)c1ccc(C(=O)Oc2ccccc2N(Cc2ccc(OC)cc2)C2=NS(=O)(=O)c3ccccc32)cc1`, 0.68%; in that of `O=C(NCC(CCN1CCC(c2c[nH]c3ccccc23)CC1)c1ccccc1)Nc1ccc(Cl)c(Cl)c1` (stereo unspecified), 15%. In the case of `COc1ccccc1C1CCN(C2CCC(NC(=O)/C=C/c3ccc(C(F)(F)F)cc3F)CC2)CC1` (stereo unspecified) it was 8.2%; in that of `O=C(Cn1c(=O)oc2ccccc21)N1CCC(n2c(=O)n(CCCN3CCOCC3)c3ccccc32)CC1`, 1.8%. The result for `COc1ccc(-c2cnc3ccc(NCc4ccc(S(N)(=O)=O)cc4)nn23)cc1` reads 2.29%; that for `COc1ccc(Nc2nccc(N3CCC(NC(=O)c4cccc(C#N)c4)C3)n2)cc1` (stereo unspecified), 3.08%; that for `CCCOc1cc(Cc2cnc(N)nc2N)cc(OC)c1OC`, 0%. The compound `COC(=O)c1cccc(CNCc2ccc(-c3ccc(-c4nc5cc(C(F)(F)F)ccc5[nH]4)s3)cc2)c1` displayed an IFI of 11.5%. The result for `O=c1cc(NCCCNCc2sc(Br)nc2Br)[nH]c2ccccc12` reads 4.48%; that for `CC12CC3CC(C)(C1)CC(Nc1nc(N4CCOCC4)nc4ccccc14)(C3)C2`, 0.88%; that for `COc1ccc2nc(C)cc(N/N=C/c3cccc([N+](=O)[O-])c3)c2c1`, 1.42%. In the case of `COc1ccc2c(CCNc3nc(SC)ncc3C(=O)NCCc3ccc(F)cc3)c[nH]c2c1` it was 5.61%. The result for `CN(C)c1cccc(-c2cnc3ccc(NCc4cccc(Cl)c4)nn23)c1` reads 5.51%; that for `COc1ccc(NC(=O)N2CCCN(CCCCCNC(=O)/C=C/c3ccc(C(F)(F)F)cc3)CC2)cc1Cl`, 7.92%; that for `Cc1cc(C(=O)NCc2ccc(-c3c(C)noc3C)cc2)n(-c2ccccc2)n1`, 2.86%. Turning to `COc1cc2c(cc1S(=O)(=O)c1ccc(OCc3ccc(Cl)cc3)cc1)CCN(Cc1ccc(NC(C)=O)s1)CC2`, the IFI stood at 7.14%. The result for `O=C(/C=C/c1ccc2ccccc2c1)NCCCCCN1CCC(c2c[nH]c3ccccc23)CC1` reads 5%. The result for `Cc1ccc(-c2ccn(Cc3cccc(OCc4ccccc4)c3)n2)cn1.Cc1ccc(-c2ccnn2Cc2cccc(OCc3ccccc3)c2)cn1` reads 0.82%.

`COc1cccc(Nc2nc(C)cc(NCc3ccc(-n4ccnc4)cc3)n2)c1` had an IFI of 4.55%.

For the compound `COc1ccc(Nc2cc(C)c3cc(NC(=O)c4ccncc4)ccc3n2)cc1`, the IFI turned out to be 4.11%. In the case of `CCCCNCc1ccc(-c2nc(CN(C(=O)Nc3cc([N+](=O)[O-])ccc3F)C3Cc4ccccc4C3)cs2)cc1` it was 7.59%. In the case of `O=C(Nc1nc2ccc(Cl)cc2s1)c1csnn1` it was 0%; in that of `CNCCNC(=O)C1Cc2c([nH]c3c(C)cccc23)C(c2ccc(Cl)c(Cl)c2)N1` (stereo unspecified), 5.15%. In the case of `OC1(C(F)(F)F)CC(c2ccccc2)=NN1c1nncc(-c2ccccc2)n1` (stereo unspecified), the IFI came out at 0%. The result for `Cc1noc(-c2ccc(N3CCC(C(=O)N4CCN(C(C)C)CC4)CC3)cc2)n1` reads -0%. In the case of `Oc1ccc(CCNc2nc(NCc3ccccc3-c3cccc(Cl)c3)nc(N3CCNCC3)n2)cc1` it was 15.4%. In the case of `Cc1cc(N[C@@H](Cc2ccccc2)C(=O)NCc2cccc(F)c2)nc(Nc2ccccc2)n1` it was 4.76%; in that of `Cc1cc(N2CCOCC2)nc(Nc2ccc(NC(=O)c3cccc4ccccc34)cc2)n1`, 11.3%. For the compound `Cc1cc(C)nc(-n2[nH]c(C)c(Cc3ccc(C(C)(C)C)cc3)c2=O)n1`, the IFI was 4.12%. The result for `CC(=O)Nc1ccc(OCCCCN(Cc2ccccc2C(F)(F)F)c2ccc(C#N)c(C(F)(F)F)c2)cc1` reads -0%. In the case of `CC(=NO)C1=C(O)C(c2ccccc2)N(c2ccccc2)C1=O` (stereo unspecified) it was -0%; in that of `Cc1cccc(CN2CCCN(Cc3ccc(C(=O)Nc4ccc(Cl)cc4)cc3)CC2)c1`, 11%. In the case of `Cc1cccc2nc(-c3cccc(-c4cccc(NC(=O)Nc5ccc(Cl)c(Cl)c5)c4)c3)[nH]c12` it was 3%; in that of `CC(C)CNCc1cccc(-c2cccc(CN(CCCN3CCN(C)CC3)C(=O)CCC3CCCC3)c2)c1`, 7.97%; in that of `CC(Cc1ccc(CN(CC(N)=O)Cc2ccc(CC(C)NCCc3cccc(Cl)c3)cc2)cc1)NCCc1cccc(Cl)c1` (stereo unspecified), 3.65%.

In turn, `O=C(Nc1ccc(N2CCCCC2)c(Cl)c1)c1ccc(Br)o1` came in with an IFI of 2.78%.

Compound `Cc1ccccc1C1CCN(c2ncc(C(=O)NC3CC3)cc2Cl)CC1` registered an IFI of 13.6%. In the case of `COCCN1CCC(CNCC(C)(C)c2nc(-c3ccc(Cl)c(O)c3)c(-c3ccncc3)[nH]2)CC1` it was -0%; in that of `O=C(NCc1ccc(Cl)c(Cl)c1)c1ccc(C2CCCN(Cc3ccc4[nH]cnc4c3)C2)cc1` (stereo unspecified), 3%; in that of `Cc1cccc2nc(-c3cccc(-c4ccc(NC(=O)c5ccoc5)cc4)c3)[nH]c12`, 2.68%.

For the compound `CCC1(CC)C(=O)N=C(N2CCCCC2)N(C)C1=O`, the IFI amounted to 0.85%.

The compound `CC(CNC1CCN(CCn2c(=O)ccc3ccc(F)cc32)CC1)c1ccccc1` (stereo unspecified) had an IFI of 0%.

As to `Fc1ccc(NC(S)=NN=Cc2ccccn2)cc1`, the IFI worked out at 7.48%. In the case of `O=C(Nc1ccccc1)c1c[nH]cn1` it was 0%; in that of `O=C(Nc1cccnc1)c1cc(-c2cccnc2)nc2ccc(Br)cc12`, 1.56%; in that of `O=C(NCc1ccccc1)NC1CCN(c2ccnc3cc(Cl)ccc23)C1` (stereo unspecified), -0%.

With `N#Cc1ccc(NC(=O)c2ccc(C(=O)NCCCCN3CCC(c4ccc5c(c4OCCOC4CCCCO4)CCCC5)CC3)cc2)cc1` (stereo unspecified), the IFI came to 12.3%. On to `CN(C)C(CNc1ncnc2cc(Cl)ccc12)Cc1ccccc1` (stereo unspecified), for which the IFI is 3.13%. In the case of `Cc1ccc2c(Cl)c(C(=O)N3CC(C)OC(C)C3)sc2c1` (stereo unspecified) it was 1.37%; in that of `CNCc1ccc(-c2ccc3ccnc(N)c3c2)cc1`, 6.86%; in that of `O=C1CSc2ccc(CNC3CCN(CCc4c(F)cnc5ccc(F)cc45)CC3)nc2N1`, 4.38%.

The compound `O=C(N[C@@H](CC1CCCCC1)C(=O)NC1CC1)c1ccc(O)c(-c2cccc(C(F)(F)F)c2)c1` yielded an IFI of 2.26%. In the case of `CCCN1CCN(CCNC(=O)c2cccc(Nc3nccc(Nc4ccc(Oc5ccccc5)cc4)n3)c2)CC1` it was 4.48%; in that of `COc1ccc2nccc([C@@H](O)CN3CCC(NCc4ccc5nnsc5c4)CC3)c2c1`, 2.9%. The result for `CCOc1cc2ncnc(Nc3ccc(OCc4ccccc4OC)c(OC)c3)c2cc1OCC` reads 4.35%; that for `N#Cc1ccc(/C=C/C(=O)NCCCCCN2CCCN(C(=O)Nc3ccc(Cl)c(C(F)(F)F)c3)CC2)cc1`, 5.94%. The result for `Cc1cc(=NN=CC=Cc2ccccc2)c2ccccc2[nH]1` reads 4.35%; that for `CC(C)(C)NC(=O)c1ccc(Oc2ccc(OC(F)(F)F)cc2)c(NC(=O)C(C)(C)C)c1`, 0.74%; that for `CCc1cc2c(O)c([N+](=O)[O-])c(=O)oc2cc1OCCCCCOc1cc2oc(=O)c([N+](=O)[O-])c(O)c2cc1CC`, 17.1%. Regarding `CCC[C@@H]([C@@H](CC1CCCCC1)C(=O)N[C@@H](CCCCNS(C)(=O)=O)C(=O)Nc1nccs1)N(O)C=O`, the IFI was found to be 1.6%.

`Cc1[nH]c(C)c(-c2ccc(/C=C/c3ccccn3)cc2)c(=O)c1Cl`: the IFI stood at 0.92%. The result for `CN1CCC(C(=O)Nc2cccc(-c3cccc(-c4nc5cc(F)ccc5[nH]4)c3)c2)CC1` reads 4.24%.

`COc1ccc(S(=O)(=O)N2CCC3(CC2)OCC(=O)NC3c2ccc(Cl)c(Cl)c2)cc1` (stereo unspecified) gave an IFI of 7.69%. The result for `COC(=O)c1ccc(OCC(C)NCC(O)c2cccc(C(F)(F)F)c2)cc1` (stereo unspecified) reads 5.26%; that for `CC(C)N1CCC(N(Cc2ccc(-c3ccc(Cl)cc3)cc2)C(=O)Cn2c(CCc3cccc(F)c3F)nc(=O)c3ccccc32)CC1`, 7.8%; that for `CS(=O)(=O)c1ccc(-c2cnc(N)c(-c3cccc(O)c3)c2)cc1`, 1.69%. `CC[C@H](C)CNC(=O)c1cncc(-c2cccc(CNCCCc3ccccc3)c2)c1`: the IFI came out at 6.45%. In the case of `Cc1ccccc1CCNC(=O)c1ccc(N2CCN(c3ccncc3)CC2)nc1` it was 2.08%; in that of `COc1cccc2cc(C(=O)N[C@@H](CC(C)C)C(=O)N[C@H](C=NN3CCOC3=O)Cc3ccccc3)oc12`, 3.67%; in that of `Cc1ccc2c(-c3ccc([N+](=O)[O-])o3)cc(C)nc2c1`, 2.88%. In the case of `COc1cc(-c2ccc(-c3cnc(N)nc3OC)[nH]2)cc(OC)c1OC` it was 1.4%; in that of `CN(C)C(=O)CC(=O)NCc1cccc(Cl)c1`, -0%. In the case of `O=C(/C=C/c1ccc(Cl)c(Cl)c1)NCCCCCN1CCC(NC(=S)Nc2cccc(Cl)c2)CC1` it was 10.3%; in that of `COc1ccc(CNCCc2cccs2)cc1-c1ccc(S(=O)(=O)NCCN2CCCC2)s1`, 11.8%; in that of `CN(C)CCOc1cccc(-c2cnc(N)c(-c3nc4cc(S(C)(=O)=O)ccc4[nH]3)c2)c1`, 11.1%. Regarding `COc1ccc2c(c1CCNCCCCNCCc1c(OC)ccc3c1CCCC3)CCCC2`, the IFI turned out to be 18.3%. With `Oc1cc(Nc2ccnc3cc(-c4ccc(CN5CCCCC5)o4)c(Cl)cc23)c(Cl)cc1F`, the IFI is 3.03%.

In the case of `Cc1ccnc2nc(C(=O)Nc3cc(C(F)(F)F)ccc3N3CCCCC3)nn12`, the IFI came out at 0%.

In turn, `CCC(NC[C@@H](O)[C@H](Cc1ccccc1)NC(=O)c1cc(C2CCCC2)cc(N2CCCC2=O)c1)c1cccc(Cl)c1` (stereo partly specified) registered an IFI of 5.71%. In the case of `CCCCCCCCc1c(C)nc(C)c(I)c1O` it was 4.38%. Compound `O=C(NCC1Cc2cc(Oc3ccccc3)ccc2O1)c1ccc([N+](=O)[O-])o1` (stereo unspecified) yielded an IFI of 17.9%. In the case of `CC(C)c1ccc(NC(=O)NCCCC2CCCN(CCCCCNC(=O)/C=C/c3ccc(Cl)c(Cl)c3)C2)cc1` (stereo unspecified) it was 13.4%; in that of `O=C(Nc1cccc(CN2CCN(Cc3ccc(O)cc3)CC2)c1)c1ccc(-c2ccccc2)cc1`, 11%; in that of `Cc1ccc(Nc2nc(N/N=C/c3cccc(O)c3)nc(Nc3ccc([N+](=O)[O-])cc3)n2)cc1C`, 2.11%.
